Target: T1, Mint1, amino acids 447-758, fused to the Gal4 DNA binding domain (bait) (yeast, UniProt P04386 1-147; Q02410 447-758)
T1 construct: Yeast two-hybrid bait in pGBTQ; also called X11 alpha
Test: yeast two-hybrid, Example 8: bait Mint1 aa 447-758, prey aa 364-589

binding result: binds
B1: KIAA0427, amino acids 364-589, fused to the Gal4 activation domain (prey) (other, yeast;human, UniProt P04386 768-881, looked up, not shown: small tags and cut ends)
chain: ANFNQSGNIADSSLSFTFTNSSNGPNLITTQTNSQALSQPIASSNVHDNFMNNEITASKIDDGNNSKPLSPGWTDQTAYNAFGITTGMFNTTTMDDVYNYLFDDEDTPPNPKKETTTPQQNKMDKLIEILNSMRNNSSDVDTKLTTFMEEAQNSTNSEEMLGEIVRTIYQKAVSDRSFAFTAAKLCDKMALFMVEGTKFRSLLLNMLQKDFTVREELQQQDVERWLGFITFLCEVFGTMRSSTGEPFRVLVCPIYTCLRELLQSQDVKEDAVLCCSMELQSTGRLLEEQLPEMMTELLASARDKMLCPSESMLTRSLLLEVIELHANSWNPLTPPITQYY
notes: Yeast two-hybrid prey from the human brain cDNA library in pACT2

— patent US20020106773A1 (MYRIAD GENETICS, published 2002)
